This note sets out measurements from ChEMBL document CHEMBL4888484, “Replenishing the malaria drug discovery pipeline: Screening and hit evaluation of the MMV Hit Generation Library 1 (HGL1) against asexual blood stage Plasmodium falciparum ,using a nano luciferase reporter read-out” (2022).

Usually % Inhibition stands for the change of the read-out against control, counted positive when it falls.

The structures appear in SMILES notation. Among all 150,000 compounds or so, about 540 (0.36%) showed an effect of 50% or more. The list shows a part of the results.

The subject of this experiment is Plasmodium falciparum. The experiment in a line: Primary screen in NF54 nanoGlo assay, in single point, at 2uM, 72h; a lower Z score goes with more inhibition. It counts as functional, Erythrocyte. As to conditions: timepoint 72 hour.
As to `Cc1nc(CN(CC(=O)N2CCOC3CCCCC32)C(C)c2ccc(Cl)cc2)oc1C` (stereo unspecified), the “% Inhibition” value is given as -1% and the Z score amounted to 0.1.
Regarding `CCn1nc(C)nc1NC(=O)N[C@H]1CCN(CC(F)F)C1`, the “% Inhibition” value is recorded as 6% and the Z score is given as -0.73.
Taken in the same sequence, the figures for `CCCCOCC(=O)Nc1cc(F)ccc1Br` were -7% and 0.71.
Regarding `CCOC(=O)[C@H]1CCCN(C(=O)c2cc(NC(C)=O)c3c(c2)ncn3CCc2ccccn2)C1`, the “% Inhibition” value amounted to 10% and the Z score is listed as -1.27.
Taken in the same sequence, the figures for `Cc1ccc(C(=O)N2CCC3(CCC(=O)N(Cc4ccccc4)CC3)CC2)cc1` were 4% and -0.51.
Regarding `CCCn1nccc1-c1cc(N2CCCC2)nc(N)n1`, the “% Inhibition” value was -13% and the Z score came to 2.22.
With `CC(C)(C)c1ccc(NC2CCN(CCN3CCOCC3)CC2)cc1`, the “% Inhibition” value is reported as -19% and the Z score stood at 1.93.
`O=C(c1ccc(C2CC2)nc1O)N1CC2(CC2)C1`: the “% Inhibition” value was -3% and the Z score is listed as 0.28.
Turning to `CC(C)N1C(=O)CO[C@H](c2ccc(NC(=O)C3CCOCC3)cc2)[C@H]1CO`, the “% Inhibition” value is recorded as 2% and the Z score is given as -0.28.
Taken in the same sequence, the figures for `Cn1ccnc(N2CCOc3ccc(F)cc3C2)c1=O` were -15% and 1.98.
Taken in the same sequence, the figures for `Cc1cnc(C2CCN(C(=O)CCCc3ccccc3)CC2)n1CCO` were -5% and 0.77.
Taken in the same sequence, the figures for `C[C@H]1CN(C(=O)c2cccc3ncn(C)c23)C[C@@H]1CS(N)(=O)=O` were -2% and 0.36.
As for `COc1ccc(CN(C(=O)OC(C)(C)C)C2CCC(C(=O)N3CCO[C@@H](COc4ccc(C)cc4)C3)CC2)cc1C` (stereo partly specified), the “% Inhibition” value is listed as -1% and the Z score was determined as 0.13.
Taken in the same sequence, the figures for `Cc1nnc(CN2CCC[C@H]2c2ncn[nH]2)s1` were -8% and 1.61.
Taken in the same sequence, the figures for `C[C@@H](N)C(=O)N1CCc2c(F)cc(F)cc21` were -15% and 2.35.
In the case of `Cc1noc(C)c1NS(=O)(=O)c1ccc2c(c1)CC(=O)N2`, the “% Inhibition” value came out at 1% and the Z score is given as -0.1.
As for `CC1(C)CN(C(=O)c2ccc(N3CC(=O)NC3=O)cc2)C[C@@H]1c1ccccc1`, the “% Inhibition” value is recorded as -15% and the Z score amounted to 2.37.
`Cc1cc(C)c(CC(=O)N2CCCS(=O)(=O)C[C@H]2C2CC2)s1`: the “% Inhibition” value is recorded as -5% and the Z score is 0.92.
For `Cc1ccc(-c2n[nH]cc2CN2CCC[C@@](F)(C(=O)N3CCOCC3)C2)cc1`, the “% Inhibition” value is given as -30% and the Z score was found to be 2.67.
Consider `Cc1cccc(C)c1OC[C@H](NCc1nnn(C)n1)c1ccccc1`, for which the “% Inhibition” value turned out to be 9% and the Z score was -1.78.
Taken in the same sequence, the figures for `COc1ccc(S(=O)(=O)N[C@H]2CC[C@H](Oc3ncc(F)cn3)CC2)cc1` were -8% and 1.4.
For the compound `CC[C@@]1(C)Cc2ccccc2-c2[nH]c(=O)n(Cc3ccco3)c(=O)c21`, the “% Inhibition” value was -9% and the Z score is reported as 1.02.
Taken in the same sequence, the figures for `CC(C)c1noc(CN2CCC(NC(=O)c3cnn(C)c3)CC2)n1` were -9% and 1.54.
Taken in the same sequence, the figures for `C=CCCC(=O)NC[C@H](O)c1cc(C)oc1C` were -12% and 1.94.
For the compound `COc1cccc(C(=O)NCc2ccc3c(c2)CCN3C(C)=O)c1`, the “% Inhibition” value was -2% and the Z score is on record as 0.45.
Taken in the same sequence, the figures for `Cc1ccsc1C(=O)N1CC[C@@H](NC(=O)c2cccnc2)[C@@H](CO)C1` were -7% and 0.88.
Taken in the same sequence, the figures for `CC1CN(S(=O)(=O)N(C)Cc2ccsc2)CC(C)O1` (stereo unspecified) were -7% and 1.03.
Regarding `c1nc(OC2CCC2)c2sccc2n1`, the “% Inhibition” value is recorded as -3% and the Z score came out at 0.42.
Turning to `CC[C@@H](NC(=O)c1cnc(OCC2CC2)cn1)C(N)=O`, the “% Inhibition” value was -10% and the Z score stood at 1.13.
Taken in the same sequence, the figures for `O=C(CCC1CCCC1)NCCCNC(=O)CCC1CCCC1` were -2% and 0.24.
Taken in the same sequence, the figures for `Cc1cc(Cl)ccc1NC(=O)N1C[C@@H](F)C[C@H]1C(=O)N1CCc2ccccc2C1` were -11% and 1.44.
Taken in the same sequence, the figures for `Cc1ccc(-c2cc(C)nc(N3CCOCC3)n2)c(-n2nc(C)cc2C)c1` were 12% and -2.27.
For `Cc1cc(-c2ccccc2C(N)=O)c(C)c2sc(N)nc12`, the “% Inhibition” value is -9% and the Z score came out at 1.48.
Taken in the same sequence, the figures for `Cn1c(=O)[nH]c(=O)c2[nH]c(CCc3nc4ccccc4[nH]3)nc21` were 5% and -0.71.
Turning to `CCCN(CCC)CCOC(=O)c1sc(C)nc1C`, the “% Inhibition” value was -4% and the Z score is reported as 0.57.
For `COc1ccc(C2=NOC(CNC(=O)CN3CCCC3C)C2)cc1F` (stereo unspecified), the “% Inhibition” value is reported as -7% and the Z score stood at 1.13.
Consider `OC[C@H](Nc1ccncn1)[C@@H](O)c1ccccc1`, for which the “% Inhibition” value was -1% and the Z score amounted to 0.11.
For `Cc1nc(-c2csc(S(=O)(=O)NC3CCCCCC3)c2)no1`, the “% Inhibition” value is listed as -2% and the Z score came to 0.19.
Taken in the same sequence, the figures for `CCCc1nccn1-c1cc(O)c(F)c(F)c1` were -7% and 1.01.
Taken in the same sequence, the figures for `Cc1n[nH]c(C)c1CNC(=O)N1C[C@H]2CC=CC[C@H]2C1` were -20% and 3.48.
Taken in the same sequence, the figures for `CCC[C@@H](C#N)NC(=O)Cc1ccc(C)s1` were -8% and 1.45.
Consider `Fc1ccccc1-c1ccc([C@H]2c3nc[nH]c3CCN2Cc2ncc[nH]2)o1`, for which the “% Inhibition” value turned out to be 11% and the Z score is recorded as -2.03.
For `Cc1cnc(C(=O)N2CCC[C@H]2c2ccnn2C)c(C)c1`, the “% Inhibition” value is listed as -7% and the Z score is 0.85.
